The chains are these.
B1: CPEB3 Ribozyme (parent)
chain: UAACAGGGGGCCACAGCAGAAGCGUUCACGUCGCAGCCCCUGUCAGAUUCUGGUGAAUCUGCGAAUUCUGCUGUAUAUCUC

Read counts are not given, so values of variants with three or more changes are uncertain.

Variants of B1 are the subject of the data set. The data set is described as follows: self-cleavage, relative activity (ratio to wild type); higher = more cleavage; in vitro, sequencing. An outline of the steps: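 For each CPEB3 ribozyme variant, relative activity is its cleaved/total read fraction divided by the unmutated ribozyme's. Barcoded error-prone PCR libraries were transcribed by T7 RNA polymerase (5 hours, 37°C) and held in DNase I for 15 min before an EDTA stop, with cleavage occurring throughout. Template-switching reverse transcription and Illumina sequencing were used to read the RNAs. A 5-read minimum applied, and results are the mean of three batches.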
With A5G U43C U58C C62U U66C U67C U69C, the self-cleavage was determined as 0.06.
Consider A5G U51A U78C, for which the self-cleavage is 0.63.
The figure for A5G G10C C11U A18U U25A A45G U58C is 0.08.
For A5G U41A U43C U80C, the self-cleavage is 0.42.
The figure for A5G G9A U48C is 0.37; for A5G G10A C27U it is 0.43.
The figure for A5G G6U A35G A56G is 0.65; for A5G C23A U54G U66C it is 0.3; for A5G U31G U41C A47G U69C U74A it is 0.
The figure for A5G G10A C62U A64U U72C U80C is 0.05; for A5G C34A A45G A77G it is 0.1; for A5G G9C A20U U41C U76A it is 0.09.
For the variant A5G U49A G53A, the self-cleavage is 0.57.
In the case of A5G G7A A13G A20G, the self-cleavage came out at 0.5.
Regarding A5G C14U U54A A57G U60C U69C U74C, the self-cleavage was 0.
In the case of A5G G22A A35G C39U A57G, the self-cleavage turned out to be 0.06.
As for A5G C68G U74A, the figure is 0.14; as for A5G C23U U25C A35G U43C A56U, 0.26; as for A5G U49C U54C, 0.17.
With A5G U41C A45U U58C, the self-cleavage turned out to be 0.19.
The figure for A5G G22A U26A G63A is 0.08; for A5G U49C U67C it is 0.14.
The figure for A5G G10A U60A A65G U66C is 0.1; for A5G G6A A20G C34A A57G it is 0.07.
On to A5G G53A U54C U60C U76C, for which the self-cleavage was found to be 0.1.
As for A5G C32U U43A U80C, the figure is 0.11; as for A5G C23A A57G, 0.1; as for A5G U26A U51G U54G A75U, 0.1.
The figure for A5G G7A A13G A35G A45G is 0.12; for A5G G10A A15G U25G U54A it is 0.08.
For the variant A5G U26A A45G U80A, the self-cleavage came out at 0.33.
As for A5G G8A U25C U58C U60G U67C, the figure is 0.07.
As for A5G G9A A45U C62A U76C, the figure is 0.07.
As for A5G G24A A56U, the figure is 0.06.
Consider A5G C17U U26A U51A A64G, for which the self-cleavage was found to be 0.52.
The figure for A5G G10A U25G C27U is 0.32.
As for A5G U26C A35G U49C U60C, the figure is 0.31; as for A5G U26G C34U G55A A57G U58A, 0.08.
Regarding A5G U41C G53U U76C, the self-cleavage came to 0.61.
As for A5G C39G U76G, the figure is 0.39; as for A5G G9A A45G U69C, 0.08; as for A5G C50U U76A, 0.61.
Regarding A5G U51C A56U A57G U72A U78G, the self-cleavage was 0.29.
The figure for A5G U49C U51C U58C A64U U66C is 0.15; for A5G U26G U51C A57U G61A U80A it is 0.05.
The figure for A5G G24A U66A U80A C81U is 0.24; for A5G U26C U48A U51A it is 0.45.
For the variant A5G U43C C44U, the self-cleavage was 0.36.
Turning to A5G G9C U25C A35G U69C, the self-cleavage is 0.06.
As for A5G G10U U31A U51C U74A, the figure is 0.24; as for A5G U41C U43C U54C A64G, 0.21; as for A5G U51A A64U U69C, 0.17.
As for A5G C27U U31C U51G A57G A77U, the figure is 0.06; as for A5G G8A A15G C71U, 0.14; as for A5G G22A U41A, 0.3.
Turning to A5G C14U C40U, the self-cleavage turned out to be 0.39.
For A5G G9A U25C U31C U51A, the self-cleavage was found to be 0.1.
As for A5G U31C U74A U78C, the figure is 0.86.
Take A5G C23U U25C A35U A57U U58A: the self-cleavage is 0.26.
In the case of A5G U26C C38U A64G, the self-cleavage was determined as 0.23.
In the case of A5G G7U A75G, the self-cleavage came to 0.33.
As to A5G U25C A65C G73A, the self-cleavage came out at 0.47.
For the variant A5G C14U U26C, the self-cleavage is 0.47.
As for A5G U41C U67C, the figure is 0.12.
In the case of A5G G10C U26G A28G A35G U51A A77G, the self-cleavage was 0.06.
As for A5G U41C U60C G70C, the self-cleavage came out at 0.11.
As to A5G C27A U43C U60C, the self-cleavage came to 0.14.
The figure for A5G G19U A20G U25C U41A U80C is 0.07; for A5G U43C A64U U78C it is 0.56.
As for A5G C23A U25C U51C U60A U66C U80C, the figure is 0.09; as for A5G U25C A35U, 0.28.
As for A5G G24A A47G A56G U66A, the figure is 0.12; as for A5G U48C U60A U67A, 0.12; as for A5G U25C U54C U72A U80C, 0.11.
As to A5G U31C U41A A47U A75U U78C, the self-cleavage turned out to be 0.05.
As for A5G U25C A56G U66C, the figure is 0.37; as for A5G U48C A56U U67A U78C U80C, 0.17; as for A5G U31A U80A, 0.5.
Regarding A5G U31C U51A U76A U78A, the self-cleavage came to 0.74.
As for A5G U51A A57G, the self-cleavage worked out at 0.26.
The figure for A5G U26C C39U A45U A64G is 0.12.
The figure for A5G U25C U49C U51C U58C is 0.33; for A5G C23U A28G C29A A35U U54C G55U it is 0.12; for A5G G33A A45G U58A U60C A64G U80A it is 0.07.
As for A5G G42U U49C U60A U67C U72A, the self-cleavage worked out at 0.05.
The figure for A5G U25C U51A is 0.09; for A5G C40U U48C it is 0.47.
Consider A5G G16A A21G, for which the self-cleavage was 0.34.
A5G U49C C59A A65G U74G: the self-cleavage came to 0.07.
As for A5G U48C U66C U80C, the figure is 0.39; as for A5G U43A C68A U80A, 0.63; as for A5G U31A A56G A65G, 0.33.
As to A5G G9A U49C A56G, the self-cleavage amounted to 0.26.
Consider A5G C27G C34G C38U A45G A56U U69A, for which the self-cleavage was found to be 0.1.
In the case of A5G U41C U76C, the self-cleavage was found to be 0.46.
The figure for A5G U43C U51C is 0.22; for A5G U48C U49A U54C A56U U80A it is 0.14.
As for A5G U49A A56U, the self-cleavage amounted to 0.67.
The figure for A5G G10U C23G U54C U76A is 0.17.
As to A5G C23A U26A A75U, the self-cleavage came out at 0.26.
As for A5G G6A C38U U54C U76C, the figure is 0.19; as for A5G G52C U54A, 0.91; as for A5G G19A G73U, 0.53.
As for A5G U49C U51A, the figure is 0.14.
As to A5G G7A U54A A56G U69C, the self-cleavage was 0.14.
As for A5G G33A A35C G52A U60A C68U, the figure is 0.08; as for A5G G8A C32U U48C A65U U78C, 0.05; as for A5G G10U U54C G63U U78C, 0.36.
As for A5G G10A A21G A65G U72C, the figure is 0.08; as for A5G U26C U54C U60C C79A, 0.11.
As for A5G U51C A57G A75U, the figure is 0.6; as for A5G C29U A56G U78C, 0.5.
A5G U41G A56G A64G: the self-cleavage worked out at 0.44.
The figure for A5G U25C U66A is 0.14.
The figure for A5G U31C U41C U54A A57G U58C is 0.08; for A5G U26C G33U U43A U78C U80A it is 0.1; for A5G U25C C59A C62U U80A it is 0.33.
As for A5G U41C U48C U80A, the self-cleavage is 0.43.
For A5G C34U U41A, the self-cleavage was 0.25.
As for A5G U25A U41C U43C A57G, the figure is 0.55.
The figure for A5G C32U U41A U43A is 0.38; for A5G U26C U51C U76C it is 0.42; for A5G G7C G10C A35C U48C it is 0.35.
The figure for A5G U25A G30A U31G C32U U78A is 0.31; for A5G U26C A45U U48A U78C it is 0.53.
In the case of A5G G7U C12U A13G U72C, the self-cleavage was 0.05.
A5G C34U U54A U60C U69C: the self-cleavage is 0.22.
The figure for A5G C38G A56G is 0.52.
As for A5G G8A G61C, the figure is 0.09.
For A5G U26C A45G A47U U58C U80A, the self-cleavage worked out at 0.1.
For A5G C23G U43C U54C U72A, the self-cleavage stood at 0.05.
As for A5G G7U G9C G16C U43A U66C U78A, the figure is 0.06.
As for A5G U25C U26C G36C U43A A77G, the figure is 0.06; as for A5G U25C A47G G52A, 0.48; as for A5G G30A U80C, 0.55.
The figure for A5G G9A G22U U26C A45G U54G G73A is 0.06; for A5G U25C U60A it is 0.22.
A5G C14G A15C U60C: the self-cleavage worked out at 0.06.
As for A5G U26C U31C A47G, the figure is 0.65; as for A5G U26C U60A, 0.26; as for A5G U26C U60C, 0.31.
A5G C62A U72G: the self-cleavage was found to be 0.22.
Regarding A5G U41C U51C U60C A64G, the self-cleavage amounted to 0.1.
For the variant A5G G19U A28G A77C, the self-cleavage is 0.3.
As for A5G C38U U78C, the figure is 0.27.
As for A5G G7C C12G A77U, the figure is 0.07; as for A5G G7C G10A A13U A15G U67C U74C, 0.09; as for A5G U25C U26C U43A A64U, 0.56.
As for A5G U26G U43G U66C A77U U78C, the figure is 0.08; as for A5G U26C U51A U80A, 0.29; as for A5G G19U C38U U49C U60C, 0.31.
As for A5G U31A C40U, the self-cleavage stood at 0.33.
With A5G C17U U25C A35G A64U U72C, the self-cleavage was found to be 0.18.
In the case of A5G G7U U60C U72C, the self-cleavage is 0.05.
On to A5G U41A U51C A57G A64G, for which the self-cleavage came out at 0.27.
On to A5G G8U A13U A47C U51A C59A A75U, for which the self-cleavage was determined as 0.07.
The figure for A5G U26C C37U U51A is 0.18; for A5G G6C A13G A18C U80C it is 0.03; for A5G U49C A56G U66C U69A it is 0.
The figure for A5G G22A G53A A65G is 0.16; for A5G U31A C40U U49C it is 0.12.
With A5G C38A U78C, the self-cleavage worked out at 0.32.
The figure for A5G G7U U31C U72C is 0.04; for A5G C23A U43G U49C U60G U80C it is 0.09; for A5G C40U U48C U49C U74C U80C it is 0.07.
On to A5G C14G U41A U43C U60C U66C, for which the self-cleavage is 0.13.
For the variant A5G U25C C39A, the self-cleavage came to 0.1.

These data come from the RNAGym collection of RNA variant scans (doi:10.1093/nar/gkz1192).
